# Measured values published in the supplement of paper PMC3334620.
# Whole data set: some 33,000 sequences, median “E-score (-0.5 to 0.5)” near -0.011, cut for the highest 2% near 0.28. The list shows a part of the results.
# Biological target: T1, Gcr1 (UniProt P07261)
# T1 sequence: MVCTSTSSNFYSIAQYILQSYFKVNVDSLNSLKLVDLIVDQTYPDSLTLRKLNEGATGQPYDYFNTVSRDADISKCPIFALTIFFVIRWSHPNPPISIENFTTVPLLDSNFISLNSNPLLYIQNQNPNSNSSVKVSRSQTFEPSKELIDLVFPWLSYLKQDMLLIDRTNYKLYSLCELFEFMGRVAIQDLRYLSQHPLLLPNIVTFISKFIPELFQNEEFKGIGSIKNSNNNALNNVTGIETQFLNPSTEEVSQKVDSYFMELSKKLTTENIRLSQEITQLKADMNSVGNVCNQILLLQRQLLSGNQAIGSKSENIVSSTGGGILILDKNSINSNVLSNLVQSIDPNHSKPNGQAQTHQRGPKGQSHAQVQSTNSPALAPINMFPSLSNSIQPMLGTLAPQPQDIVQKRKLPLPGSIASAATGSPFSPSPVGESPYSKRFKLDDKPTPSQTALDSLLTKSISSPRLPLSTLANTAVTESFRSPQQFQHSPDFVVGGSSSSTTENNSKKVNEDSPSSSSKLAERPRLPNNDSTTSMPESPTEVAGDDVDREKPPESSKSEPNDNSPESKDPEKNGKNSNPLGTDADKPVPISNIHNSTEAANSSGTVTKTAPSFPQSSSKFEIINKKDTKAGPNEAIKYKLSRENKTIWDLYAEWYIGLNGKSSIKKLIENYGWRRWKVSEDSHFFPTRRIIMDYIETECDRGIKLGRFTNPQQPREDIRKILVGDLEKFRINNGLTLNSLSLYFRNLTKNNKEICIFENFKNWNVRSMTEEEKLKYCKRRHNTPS
# Experiment: PBM E-score (8-mer binding enrichment) (E-score (-0.5 to 0.5)); higher = stronger / more preferred TF binding; most listed sequences are background and not binding sites
# Settings: protein concentration: 100 nM; construct: GST-full length
# Experimental: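 Universal 'all 10-mer' protein binding microarrays (Agilent AMADID 015681) probed with GST-tagged S. cerevisiae TFs (full-length or DBD) made by in vitro transcription/translation (PURExpress), about 100-200 nM. Bound TF was detected with fluorescent anti-GST. Each ungapped 8-mer (which stands for itself and its reverse complement) is scored by the PBM enrichment score (E-score), a modified Wilcoxon-Mann-Whitney statistic from -0.5 to +0.5, computed with the Universal PBM Analysis Suite. Scale: above 0.35 generally sequence-specific binding.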
row,Sequence,PBM E-score
1,ATATACTA,0.174
2,ATCATACC,-0.0309
3,GAAGGCGA,0.0714
4,ACCCGGAC,-0.0451
5,AAAAAACA,0.115
6,ATTATCTA,0.0382
7,GTTATGCA,-0.0661
8,GACATGTC,-0.233
9,GGCTACCC,-0.0791
10,GGATCCGA,0.182
11,CGTTCGGC,-0.241
12,ATGTAGGA,0.00485
13,CGGTTTTC,0.0327
14,ATCGACAT,0.116
15,AGTATATC,0.0181
16,AAAAGAGC,-0.0507
17,CGTAACTA,-0.00037
18,CGGACCCG,0.145
19,ACCTCATC,-0.237
20,CGGGCTTA,0.00411
21,AACTGTAA,0.162
22,CCCGGAAC,-0.0107
23,GAGGCCGC,0.238
24,CTACCATC,-0.185
25,ATCTCATA,0.186

row,Sequence,PBM E-score
1,AGAGCTTA,-0.119
2,CGCATTAC,-0.0395
3,GCTGCACC,-0.168
4,GAGTGGCC,-0.213
5,AATGGTTC,-0.133
6,ACACGTCG,-0.0855
7,GGCAAAGA,-0.185
8,GCATCGCC,0.102
9,GACCGAAC,-0.0743
10,ATGAGACA,-0.0337
11,AGTGCGTG,-0.0812
12,GGCATACC,-0.144
13,ATATGAGC,-0.05
14,AGTAGTAC,-0.0479
15,CAATAAGC,-0.0044
16,CCTGCGTA,0.0119
17,AACTGTTA,0.0139
18,AACCGAGT,-0.184
19,CAAAGCTG,0.0879
20,AAGGTTAT,-0.21
21,GGCAGGGA,-0.0455
22,CAATCGCG,-0.213
23,ACGCGACC,-0.074
24,AGTAAGGA,-0.0361
25,CCCAATTC,0.108

row,Sequence,PBM E-score
1,CGTCGAGC,-0.162
2,TAACCCAA,0.0626
3,TCATGGCA,-0.091
4,GACGGCAA,-0.0533
5,CGCAAGCC,-0.151
6,ACTTTCCT,-0.102
7,ATGACTTC,0.0803
8,AAGGTAAG,-0.159
9,TATGCGCA,-0.00632
10,ACGCCTGA,-0.0957
11,GTGACTTA,0.00608
12,CATTTGGC,-0.0265
13,ATACGAAT,0.113
14,CCCACGCC,0.0129
15,ATCTCTCG,-0.095
16,GTTACAGA,-0.183
17,CCTCATCA,0.00334
18,TCGATTCA,0.045
19,CATTTAAG,0.0639
20,CGTAGCTC,0.0208
21,AAGAAGGC,0.0402
22,CGAATGAC,-0.177
23,GTAAAGAA,0.0282
24,CATTATAG,0.165
25,GCAGTTAC,0.0508

row,Sequence,PBM E-score
1,ACCGTTAC,-0.186
2,GACGCCTC,0.282
3,GGGAATTA,0.136
4,CACTCTAA,0.067
5,GTATCCCA,0.339
6,GGGGTCTA,-0.0583
7,CACCCATG,0.0166
8,CACTACTA,0.0899
9,ATTCGCAA,0.0529
10,AAAGGCAA,-0.186
11,AAACTCCT,-0.101
12,AATATAGA,0.0274
13,AGATCATA,-0.0179
14,CCGCAAGA,0.107
15,ACAGAAAA,-0.076
16,GACCTTGC,-0.167
17,GCATAGCA,-0.122
18,AGGTGCAC,0.00083
19,AAGTTTAT,-0.0796
20,CATCACTA,0.0362
21,GAATCATA,0.0695
22,AAAAGTGC,-0.00741
23,CCGGTTTA,0.0384
24,AGGCCAGA,-0.19
25,CCACCGGG,-0.148

row,Sequence,PBM E-score
1,CATTTAAA,0.287
2,GTCATAAC,-0.00864
3,CCGTACCA,0.0561
4,CGTTACCA,0.00841
5,CTTATTTC,0.129
6,ATTACTTA,0.136
7,CTAAAGAG,0.0527
8,CTAGACGC,0.0428
9,CCCCGACG,0.0178
10,AACATGTG,0.141
11,CGGTGACA,0.0502
12,CATAGCAC,-0.0291
13,CTAAACAG,0.168
14,AACCCGCG,-0.0103
15,CACTGTAC,-0.109
16,CATAATGC,0.0155
17,ACGTTGCT,0.119
18,GAACGACA,0.144
19,GCCTCCCA,0.0853
20,GGCAGGAC,-0.00665
21,GGATTAGA,0.0797
22,AGATAACG,-0.0569
23,CACTACGA,0.0464
24,GAAGCTGA,0.322
25,GCACCGAC,-0.0401

row,Sequence,PBM E-score
1,AGTTTTTG,0.0832
2,GATTTACA,-0.0196
3,CGCTGGAA,0.173
4,GGAAGTAA,0.00298
5,CGACGGCA,-0.024
6,AAGCTCTA,-0.107
7,ATCACGGG,-0.0862
8,CCGAATTC,0.176
9,GGTAATTA,-0.0768
10,GACATGAC,-0.118
11,CAATCGAG,0.00485
12,GAAATGCA,-0.122
13,GCGCTGCC,0.0863
14,CTGCTATA,-0.0923
15,GCGTGACA,-0.133
16,CCTAAGCA,-0.128
17,CATTCCCC,-0.0585
18,ACCATGTC,-0.0554
19,CGGTTTTA,0.0309
20,CCGGTTTC,0.238
21,GAAAAAAA,0.186
22,AGGCCCTG,-0.154
23,GACAAATC,-0.0172
24,CTAAGACA,0.0208
25,GAAAAGAC,-0.0878

row,Sequence,PBM E-score
1,CGCCTTAC,0.0782
2,CAAAAGGG,-0.0777
3,TCTGCTCA,-0.198
4,TTACTGAA,-0.127
5,GTACACGA,-0.0702
6,CCGTATGA,-0.00646
7,ATAGATAC,-0.00889
8,GACATTCA,-0.094
9,CGCGCTGA,-0.143
10,AGCAGTCC,-0.149
11,ACTAAGGA,-0.0844
12,TACTCAGA,0.108
13,ACATCGAT,-0.0188
14,ATTAGAGC,-0.121
15,GGAAATTA,0.0936
16,AGCTGGTA,0.136
17,CTCAGTCA,-0.0412
18,GACACGCC,-0.00487
19,GTGGAGGA,0.0415
20,CTGACTGC,-0.0274
21,GAGCCAGA,0.03
22,GAGAGCCC,-0.141
